# Measurements as given in the supplement of paper PMC8728848.
# The other results are listed elsewhere or left out.
# B1: TbCVNHOb (Tuber borchii) (protein)
# chain: MSFYASSEDVRTIEEGGRTWLVGRARRADGSWQDIKLDLDNIIGNRDGHLTWGEQNFTQSASDIRFNFEGGSNVPVLRAKLRNAAGGEQESDLNLGERLTNNNGDLVFN
# Legend:
# Experiment in all cases: glycan array binding signal (z-score within array); higher = stronger binding
# Conditions in all cases: glycan notation: IUPAC condensed, linker removed
# Neu5Ac(a2-6)Gal(b1-4)Glc = molecular target: Neu5Ac(a2-6)Gal(b1-4)Glc
# Procedure, shortened: (§1)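 The Consortium for Functional Glycomics database supplied 3228 glycan arrays, of which those lacking an available protein sequence were dropped. The binding signal, a within-array Z-score, was averaged across arrays of the same protein sequence and across linkers. Negative scores can be read as non-binding.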
# [1] = molecular target: Neu5Ac(a2-6)Gal(b1-4)GlcNAc
# Procedure, shortened: as §1
# [2] = molecular target: Neu5Ac(a2-6)Gal(b1-4)GlcNAc(b1-2)Man(a1-3)[Gal(b1-4)GlcNAc(b1-2)Man(a1-6)]Man(b1-4)GlcNAc(b1-4)GlcNAc
# Procedure, shortened: as §1
# [3] = molecular target: Neu5Ac(a2-6)Gal(b1-4)GlcNAc(b1-2)Man(a1-3)[GlcNAc(b1-2)Man(a1-6)]Man(b1-4)GlcNAc(b1-4)GlcNAc
# Procedure, shortened: as §1
# [4] = molecular target: Neu5Ac(a2-6)Gal(b1-4)GlcNAc(b1-2)Man(a1-3)[GlcNAc(b1-2)Man(b1-4)GlcNAc(b1-2)Man(a1-6)]Man(b1-4)GlcNAc(b1-4)GlcNAc
# Procedure, shortened: as §1
# [5] = molecular target: Neu5Ac(a2-6)Gal(b1-4)GlcNAc(b1-2)Man(a1-3)[Neu5Ac(a2-6)Gal(b1-4)GlcNAc(b1-2)Man(a1-6)]Man(b1-4)GlcNAc(b1-4)GlcNAc
# Procedure, shortened: as §1
# [6] = molecular target: Neu5Ac(a2-6)Gal(b1-4)GlcNAc(b1-2)Man(a1-6)[Gal(b1-4)GlcNAc(b1-2)Man(a1-3)]Man(b1-4)GlcNAc(b1-4)GlcNAc
# Procedure, shortened: as §1
# [7] = molecular target: Neu5Ac(a2-6)Gal(b1-4)GlcNAc(b1-2)Man(a1-6)[GlcNAc(b1-2)Man(a1-3)]Man(b1-4)GlcNAc(b1-4)GlcNAc
# Procedure, shortened: as §1
# [8] = molecular target: Neu5Ac(a2-6)Gal(b1-4)GlcNAc(b1-3)Gal(b1-4)GlcNAc
# Procedure, shortened: as §1
# [9] = molecular target: Neu5Ac(a2-6)Gal(b1-4)GlcNAc(b1-3)Gal(b1-4)[Fuc(a1-3)]GlcNAc(b1-3)Gal(b1-4)[Fuc(a1-3)]GlcNAc
# Procedure, shortened: as §1
# [10] = molecular target: Neu5Ac(a2-6)Gal(b1-4)GlcNAc6S
# Procedure, shortened: as §1
# Neu5Ac(a2-6)GalNAc = molecular target: Neu5Ac(a2-6)GalNAc
# Procedure, shortened: as §1
# [11] = molecular target: Neu5Ac(a2-6)GalNAc(b1-4)GlcNAc
# Procedure, shortened: as §1
# Neu5Ac(a2-8)Neu5Ac = molecular target: Neu5Ac(a2-8)Neu5Ac
# Procedure, shortened: as §1
# [12] = molecular target: Neu5Ac(a2-8)Neu5Ac(a2-3)Gal(b1-4)Glc
# Procedure, shortened: as §1
# [13] = molecular target: Neu5Ac(a2-8)Neu5Ac(a2-3)[GalNAc(b1-4)]Gal(b1-4)Glc
# Procedure, shortened: as §1
# [14] = molecular target: Neu5Ac(a2-8)Neu5Ac(a2-8)Neu5Ac
# Procedure, shortened: as §1
# [15] = molecular target: Neu5Ac(a2-8)Neu5Ac(a2-8)Neu5Ac(a2-3)Gal(b1-4)Glc
# Procedure, shortened: as §1
# [16] = molecular target: Neu5Ac(a2-8)Neu5Ac(a2-8)Neu5Ac(a2-3)[GalNAc(b1-4)]Gal(b1-4)Glc
# Procedure, shortened: as §1
# [17] = molecular target: Neu5Ac(a2-8)Neu5Ac(a2-8)Neu5Ac(a2-8)Neu5Ac(a2-3)[GalNAc(b1-4)]Gal(b1-4)Glc
# Procedure, shortened: as §1
# [18] = molecular target: Neu5Ac(b2-6)Gal(b1-4)GlcNAc
# Procedure, shortened: as §1
# Neu5Ac(b2-6)GalNAc = molecular target: Neu5Ac(b2-6)GalNAc
# Procedure, shortened: as §1
# [19] = molecular target: Neu5Ac9Ac(a2-6)Gal(b1-4)GlcNAc
# Procedure, shortened: as §1
# [20] = molecular target: Neu5Gc(a2-3)Gal(b1-3)GlcNAc
# Procedure, shortened: as §1
# [21] = molecular target: Neu5Gc(a2-3)Gal(b1-3)[Fuc(a1-4)]GlcNAc
# Procedure, shortened: as §1
# Neu5Gc(a2-3)Gal(b1-4)Glc = molecular target: Neu5Gc(a2-3)Gal(b1-4)Glc
# Procedure, shortened: as §1
# [22] = molecular target: Neu5Gc(a2-3)Gal(b1-4)GlcNAc
# Procedure, shortened: as §1
# [23] = molecular target: Neu5Gc(a2-3)Gal(b1-4)[Fuc(a1-3)]GlcNAc
# Procedure, shortened: as §1
# [24] = molecular target: Neu5Gc(a2-6)Gal(b1-4)GlcNAc
# Procedure, shortened: as §1
# Neu5Gc(a2-6)GalNAc = molecular target: Neu5Gc(a2-6)GalNAc
# Procedure, shortened: as §1
# [25] = molecular target: Neu5Gc(b2-6)Gal(b1-4)GlcNAc
# Procedure, shortened: as §1
binder,measurement,setting,value
B1,glycan array binding signal (z-score),Neu5Ac(a2-6)Gal(b1-4)Glc,-0.055
same,glycan array binding signal (z-score),[1],-0.27
same,glycan array binding signal (z-score),[2],-0.15
same,glycan array binding signal (z-score),[3],-0.169
same,glycan array binding signal (z-score),[4],-0.008
same,glycan array binding signal (z-score),[5],-0.103
same,glycan array binding signal (z-score),[6],-0.129
same,glycan array binding signal (z-score),[7],-0.131
same,glycan array binding signal (z-score),[8],-0.156
same,glycan array binding signal (z-score),[9],0.016
same,glycan array binding signal (z-score),[10],-0.275
same,glycan array binding signal (z-score),Neu5Ac(a2-6)GalNAc,-0.28
same,glycan array binding signal (z-score),[11],-0.347
same,glycan array binding signal (z-score),Neu5Ac(a2-8)Neu5Ac,-0.137
same,glycan array binding signal (z-score),[12],-0.392
same,glycan array binding signal (z-score),[13],-0.26
same,glycan array binding signal (z-score),[14],-0.347
same,glycan array binding signal (z-score),[15],-0.118
same,glycan array binding signal (z-score),[16],-0.317
same,glycan array binding signal (z-score),[17],-0.228
same,glycan array binding signal (z-score),[18],-0.31
same,glycan array binding signal (z-score),Neu5Ac(b2-6)GalNAc,-0.314
same,glycan array binding signal (z-score),[19],-0.117
same,glycan array binding signal (z-score),[20],-0.289
same,glycan array binding signal (z-score),[21],-0.36
same,glycan array binding signal (z-score),Neu5Gc(a2-3)Gal(b1-4)Glc,-0.12
same,glycan array binding signal (z-score),[22],-0.231
same,glycan array binding signal (z-score),[23],-0.197
same,glycan array binding signal (z-score),[24],-0.266
same,glycan array binding signal (z-score),Neu5Gc(a2-6)GalNAc,-0.275
same,glycan array binding signal (z-score),[25],-0.171
